Experimental data reported in the BET-seq Pho4 binding data (Le et al. 2018).
Some of the results follow. The energies were worked out here from pooled read counts, against the library average; single values are noisy.

What follows are sequences tested against T1, Pho4 (S. cerevisiae) (UniProt P07270) (assay: relative binding free energy (BET-seq); higher = weaker binding). Details: reference: library average.
T1 sequence: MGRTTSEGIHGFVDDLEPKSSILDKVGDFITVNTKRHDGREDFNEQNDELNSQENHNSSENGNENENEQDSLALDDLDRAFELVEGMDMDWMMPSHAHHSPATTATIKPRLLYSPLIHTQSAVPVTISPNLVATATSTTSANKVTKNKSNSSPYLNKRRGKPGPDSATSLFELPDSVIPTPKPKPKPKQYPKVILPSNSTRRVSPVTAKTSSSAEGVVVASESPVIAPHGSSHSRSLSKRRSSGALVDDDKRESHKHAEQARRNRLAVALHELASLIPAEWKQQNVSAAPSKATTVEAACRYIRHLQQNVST
For TATCACACGTGTTTGT, the “relative binding free energy” value was -0.06 kcal/mol.
For CGTGGCACGTGGGGCC, the “relative binding free energy” value was -0.39 kcal/mol.
ATGTCCACGTGGGGTG was tested, and the “relative binding free energy” value was -0.05 kcal/mol.
With CTGGACACGTGGTAAT the “relative binding free energy” value was 0.06 kcal/mol.
In the case of AGTGGCACGTGTTATG, the “relative binding free energy” value is reported as -0.05 kcal/mol.
In the case of GAATTCACGTGTAGGT, the “relative binding free energy” value is reported as 0.33 kcal/mol.
TCTGTCACGTGGGTAT was tested, and the “relative binding free energy” value was 0 kcal/mol.
In the case of CTGTACACGTGTGATT, the “relative binding free energy” value is reported as 0.17 kcal/mol.
With TTGTCCACGTGGGTTA the “relative binding free energy” value was 0 kcal/mol.
With AACTGCACGTGGTGGG the “relative binding free energy” value was -0.14 kcal/mol.
GATATCACGTGTATGG was tested, and the “relative binding free energy” value was 0.07 kcal/mol.
With TAAATCACGTGGAGTT the “relative binding free energy” value was 0.24 kcal/mol.
With TGAGGCACGTGAAGAT the “relative binding free energy” value was 0.32 kcal/mol.
GGGCGCACGTGATTGG was tested, and the “relative binding free energy” value was 0.15 kcal/mol.
For TTTTACACGTGGAGCA, the “relative binding free energy” value was 0.12 kcal/mol.
In the case of ATTTGCACGTGATGCG, the “relative binding free energy” value is reported as 0.15 kcal/mol.
With CTTATCACGTGTGGGG the “relative binding free energy” value was 0.23 kcal/mol.
For TGTGTCACGTGCGAAG, the “relative binding free energy” value was 0.04 kcal/mol.
With ATTGTCACGTGACATG the “relative binding free energy” value was 0.12 kcal/mol.
ATATGCACGTGGTTAA was tested, and the “relative binding free energy” value was -0.12 kcal/mol.
For TATTGCACGTGATGGA, the “relative binding free energy” value was 0.05 kcal/mol.
With AGTTTCACGTGTAGCG the “relative binding free energy” value was 0.23 kcal/mol.
In the case of GTATACACGTGGCGTG, the “relative binding free energy” value is reported as -0.11 kcal/mol.
TGTGGCACGTGGTAAG was tested, and the “relative binding free energy” value was -0.16 kcal/mol.
GGGGTCACGTGCACGT was tested, and the “relative binding free energy” value was 0.03 kcal/mol.
For AGCATCACGTGTGGTA, the “relative binding free energy” value was 0.24 kcal/mol.
In the case of GGCATCACGTGTCGGG, the “relative binding free energy” value is reported as 0.33 kcal/mol.
For TTTGACACGTGAGATT, the “relative binding free energy” value was 0.18 kcal/mol.
For TACTTCACGTGGGGAG, the “relative binding free energy” value was 0.23 kcal/mol.
AAAATCACGTGTTTTA was tested, and the “relative binding free energy” value was 0.15 kcal/mol.
CTGCACACGTGGTGTG was tested, and the “relative binding free energy” value was -0.09 kcal/mol.
With TTACGCACGTGAGGTT the “relative binding free energy” value was 0.3 kcal/mol.
For TGCGGCACGTGGTCGT, the “relative binding free energy” value was -0.27 kcal/mol.
For TCTGGCACGTGGAGGT, the “relative binding free energy” value was -0.11 kcal/mol.
In the case of CTGTGCACGTGGCGGG, the “relative binding free energy” value is reported as -0.02 kcal/mol.
TGCTACACGTGGGATT was tested, and the “relative binding free energy” value was 0.03 kcal/mol.
With TGTACCACGTGAGTTT the “relative binding free energy” value was 0.11 kcal/mol.
TTATTCACGTGTGAAT was tested, and the “relative binding free energy” value was 0.27 kcal/mol.
CAGGCCACGTGTGTGG was tested, and the “relative binding free energy” value was -0.04 kcal/mol.
For TTGGACACGTGGTGAG, the “relative binding free energy” value was -0.01 kcal/mol.
For CATGTCACGTGTTGGA, the “relative binding free energy” value was 0.18 kcal/mol.
For TTCGGCACGTGTGACT, the “relative binding free energy” value was 0.11 kcal/mol.
In the case of CTTTTCACGTGATTTA, the “relative binding free energy” value is reported as 0.44 kcal/mol.
AGATGCACGTGGTATT was tested, and the “relative binding free energy” value was -0.08 kcal/mol.
AGCGTCACGTGATTGT was tested, and the “relative binding free energy” value was 0.21 kcal/mol.
For TAAGGCACGTGTTCAT, the “relative binding free energy” value was -0.07 kcal/mol.
In the case of ATTGTCACGTGGTAAT, the “relative binding free energy” value is reported as 0.02 kcal/mol.
For CGGCACACGTGTTTGT, the “relative binding free energy” value was 0.09 kcal/mol.
AAGGTCACGTGACGTG was tested, and the “relative binding free energy” value was 0.11 kcal/mol.
ATTTACACGTGTAATA was tested, and the “relative binding free energy” value was 0.21 kcal/mol.
With GCAAGCACGTGGTGGC the “relative binding free energy” value was 0.03 kcal/mol.
TGTGACACGTGCAGGG was tested, and the “relative binding free energy” value was 0.02 kcal/mol.
AGAGACACGTGTAATG was tested, and the “relative binding free energy” value was 0.26 kcal/mol.
For TGTATCACGTGTCGGT, the “relative binding free energy” value was 0.21 kcal/mol.
GTGGCCACGTGGATTG was tested, and the “relative binding free energy” value was -0.07 kcal/mol.
In the case of GGTTGCACGTGAGGCG, the “relative binding free energy” value is reported as 0.32 kcal/mol.
For TAAGTCACGTGGTTAC, the “relative binding free energy” value was 0.15 kcal/mol.
With TAGGCCACGTGGCTGG the “relative binding free energy” value was -0.14 kcal/mol.
For GTTCACACGTGGGTTT, the “relative binding free energy” value was 0.06 kcal/mol.
ATGGACACGTGTGGTC was tested, and the “relative binding free energy” value was 0.16 kcal/mol.
In the case of ATAGTCACGTGTGGGC, the “relative binding free energy” value is reported as 0.23 kcal/mol.
For AGGCACACGTGGGGGT, the “relative binding free energy” value was -0.19 kcal/mol.
TTTCTCACGTGTTTTC was tested, and the “relative binding free energy” value was 0.18 kcal/mol.
With TGATTCACGTGGCCTG the “relative binding free energy” value was 0.21 kcal/mol.
For AGGGGCACGTGGGCCC, the “relative binding free energy” value was -0.13 kcal/mol.
For GGTTCCACGTGTAGGA, the “relative binding free energy” value was 0.07 kcal/mol.
In the case of CTTGGCACGTGGTACT, the “relative binding free energy” value is reported as -0.16 kcal/mol.
In the case of TGGTTCACGTGGGGAA, the “relative binding free energy” value is reported as 0.19 kcal/mol.
With GGTTTCACGTGTAGGC the “relative binding free energy” value was 0.28 kcal/mol.
With CTTTACACGTGGTGAT the “relative binding free energy” value was -0.03 kcal/mol.
In the case of GTGTTCACGTGGGGAT, the “relative binding free energy” value is reported as 0.16 kcal/mol.
For GGTCTCACGTGATAAT, the “relative binding free energy” value was 0.46 kcal/mol.
For TTGGGCACGTGGAGCC, the “relative binding free energy” value was 0.15 kcal/mol.
In the case of GTTGTCACGTGGCGTC, the “relative binding free energy” value is reported as 0.14 kcal/mol.
TGGCTCACGTGGGTCT was tested, and the “relative binding free energy” value was 0.19 kcal/mol.
In the case of GTGTGCACGTGGTTTG, the “relative binding free energy” value is reported as 0.05 kcal/mol.
In the case of TAATGCACGTGTTGAG, the “relative binding free energy” value is reported as -0.04 kcal/mol.
In the case of GTGCACACGTGGGTGG, the “relative binding free energy” value is reported as -0.04 kcal/mol.
With GGGGCCACGTGCGGAT the “relative binding free energy” value was -0.04 kcal/mol.
In the case of TGTTGCACGTGAAAGA, the “relative binding free energy” value is reported as 0.23 kcal/mol.
In the case of TGAGTCACGTGGTGGC, the “relative binding free energy” value is reported as 0.06 kcal/mol.
AATGTCACGTGTGTAA was tested, and the “relative binding free energy” value was 0.21 kcal/mol.
In the case of CAGTGCACGTGTGGTG, the “relative binding free energy” value is reported as 0.1 kcal/mol.
With TTCGTCACGTGGGAAA the “relative binding free energy” value was 0.16 kcal/mol.
In the case of CGGGCCACGTGGTCGG, the “relative binding free energy” value is reported as -0.1 kcal/mol.
In the case of TTAATCACGTGTGCTG, the “relative binding free energy” value is reported as 0.09 kcal/mol.
With AGGTACACGTGAGTGA the “relative binding free energy” value was 0.27 kcal/mol.
For CTGGTCACGTGTTTGG, the “relative binding free energy” value was 0.08 kcal/mol.
For GATAGCACGTGTTTAT, the “relative binding free energy” value was -0.02 kcal/mol.
In the case of GTAGGCACGTGTCTAT, the “relative binding free energy” value is reported as 0.03 kcal/mol.
With TGTGACACGTGGACTT the “relative binding free energy” value was -0.05 kcal/mol.
CAAGTCACGTGTAGGG was tested, and the “relative binding free energy” value was 0.1 kcal/mol.
GGTGGCACGTGTACGA was tested, and the “relative binding free energy” value was -0.08 kcal/mol.
With GTATACACGTGTGTTT the “relative binding free energy” value was 0.04 kcal/mol.
With TCTGTCACGTGATAGT the “relative binding free energy” value was 0.21 kcal/mol.
For TTATACACGTGGCGTG, the “relative binding free energy” value was -0.06 kcal/mol.
TTTTGCACGTGTGAGC was tested, and the “relative binding free energy” value was 0.17 kcal/mol.
With GGTGGCACGTGAAGGG the “relative binding free energy” value was 0.31 kcal/mol.
In the case of CTTTTCACGTGGGGGG, the “relative binding free energy” value is reported as 0.18 kcal/mol.
In the case of TGACGCACGTGTTGTT, the “relative binding free energy” value is reported as -0.03 kcal/mol.
In the case of GAAGGCACGTGGGATA, the “relative binding free energy” value is reported as -0.1 kcal/mol.
For TGAAACACGTGGGTAA, the “relative binding free energy” value was 0.02 kcal/mol.
CGAGTCACGTGTTTTG was tested, and the “relative binding free energy” value was 0.12 kcal/mol.
In the case of CGTTTCACGTGGCTGA, the “relative binding free energy” value is reported as 0.25 kcal/mol.
ATTTGCACGTGTCTGG was tested, and the “relative binding free energy” value was 0.03 kcal/mol.
With TTACGCACGTGTGTTG the “relative binding free energy” value was -0.13 kcal/mol.
AGAGTCACGTGGGTGT was tested, and the “relative binding free energy” value was 0.02 kcal/mol.
In the case of AGAGACACGTGCTTTG, the “relative binding free energy” value is reported as 0.15 kcal/mol.
In the case of TTGTACACGTGAGGGA, the “relative binding free energy” value is reported as 0.26 kcal/mol.
With AGAATCACGTGGTGGG the “relative binding free energy” value was 0.19 kcal/mol.
In the case of TGTCGCACGTGTGTCT, the “relative binding free energy” value is reported as -0.11 kcal/mol.
With TGACGCACGTGGTTAG the “relative binding free energy” value was -0.14 kcal/mol.
For AGTGGCACGTGTTAAG, the “relative binding free energy” value was -0.03 kcal/mol.
TTTGTCACGTGGTCTC was tested, and the “relative binding free energy” value was 0.04 kcal/mol.
For AGGTCCACGTGTAGGG, the “relative binding free energy” value was 0.02 kcal/mol.
